# Reference: the supplement of paper PMC8728848
# The other results are listed elsewhere or left out.
# How the values were obtained:
# Assay in all cases: glycan array binding signal (z-score within array); higher = stronger binding
# Settings in all cases: glycan notation: IUPAC condensed, linker removed
# [1] = biological target: Glc(a1-4)Glc(a1-4)Glc(a1-4)Glc
# Method in brief: (§1)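 Glycan array binding is given as a within-array Z-score, which can be read as non-binding when negative. The arrays, 3228 of them, came from the Consortium for Functional Glycomics database and were retained only where the protein sequence was available. Z-scores were averaged across arrays of the same protein sequence at different concentrations or buffers and across linkers.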
# Glc(a1-6)Glc(a1-6)Glc = biological target: Glc(a1-6)Glc(a1-6)Glc
# Method in brief: as §1
# [2] = biological target: Glc(a1-6)Glc(a1-6)Glc(a1-6)Glc
# Method in brief: as §1
# Glc(b1-4)Glc = biological target: Glc(b1-4)Glc
# Method in brief: as §1
# Glc(b1-6)Glc = biological target: Glc(b1-6)Glc
# Method in brief: as §1
# GlcA(b1-3)Gal = biological target: GlcA(b1-3)Gal
# Method in brief: as §1
# GlcA(b1-3)GlcNAc = biological target: GlcA(b1-3)GlcNAc
# Method in brief: as §1
# GlcA(b1-6)Gal = biological target: GlcA(b1-6)Gal
# Method in brief: as §1
# [3] = biological target: GlcA3S(b1-3)Gal(b1-4)GlcNAc(b1-2)Man
# Method in brief: as §1
# [4] = biological target: GlcA3S(b1-3)Gal(b1-4)GlcNAc(b1-3)Gal(b1-4)Glc
# Method in brief: as §1
# [5] = biological target: GlcNAc(a1-3)Gal(b1-4)GlcNAc
# Method in brief: as §1
# [6] = biological target: GlcNAc(a1-4)Gal(b1-3)GlcNAc
# Method in brief: as §1
# [7] = biological target: GlcNAc(a1-4)Gal(b1-4)GalNAc
# Method in brief: as §1
# [8] = biological target: GlcNAc(a1-4)Gal(b1-4)GlcNAc
# Method in brief: as §1
# [9] = biological target: GlcNAc(a1-4)Gal(b1-4)GlcNAc(b1-3)Gal(b1-4)Glc
# Method in brief: as §1
# [10] = biological target: GlcNAc(a1-4)Gal(b1-4)GlcNAc(b1-3)Gal(b1-4)GlcNAc
# Method in brief: as §1
# [11] = biological target: GlcNAc(a1-4)Gal(b1-4)GlcNAc(b1-3)Gal(b1-4)GlcNAc(b1-3)Gal(b1-4)GlcNAc
# Method in brief: as §1
# [12] = biological target: GlcNAc(a1-4)Gal(b1-4)GlcNAc(b1-3)Gal(b1-4)[Fuc(a1-3)]GlcNAc(b1-3)Gal(b1-4)[Fuc(a1-3)]GlcNAc
# Method in brief: as §1
# [13] = biological target: GlcNAc(a1-6)Gal(b1-4)GlcNAc
# Method in brief: as §1
# [14] = biological target: GlcNAc(b1-2)Gal(b1-3)GalNAc
# Method in brief: as §1
# [15] = biological target: GlcNAc(b1-2)Man(a1-3)[GlcNAc(b1-2)Man(a1-6)]Man(b1-4)GlcNAc(b1-4)GlcNAc
# Method in brief: as §1
# [16] = biological target: GlcNAc(b1-2)Man(a1-3)[GlcNAc(b1-2)Man(a1-6)]Man(b1-4)GlcNAc(b1-4)[Fuc(a1-6)]GlcNAc
# Method in brief: as §1
# [17] = biological target: GlcNAc(b1-2)Man(a1-3)[GlcNAc(b1-4)][GlcNAc(b1-2)Man(a1-6)]Man(b1-4)GlcNAc(b1-4)GlcNAc
# Method in brief: as §1
# [18] = biological target: GlcNAc(b1-2)Man(a1-3)[GlcNAc(b1-4)][GlcNAc(b1-2)Man(a1-6)]Man(b1-4)GlcNAc(b1-4)[Fuc(a1-6)]GlcNAc
# Method in brief: as §1
# [19] = biological target: GlcNAc(b1-2)[GlcNAc(b1-4)]Man(a1-3)[GlcNAc(b1-2)Man(a1-6)]Man(b1-4)GlcNAc(b1-4)GlcNAc
# Method in brief: as §1
# [20] = biological target: GlcNAc(b1-2)[GlcNAc(b1-4)]Man(a1-3)[GlcNAc(b1-4)][GlcNAc(b1-2)Man(a1-6)]Man(b1-4)GlcNAc(b1-4)GlcNAc
# Method in brief: as §1
# [21] = biological target: GlcNAc(b1-2)[GlcNAc(b1-4)]Man(a1-3)[GlcNAc(b1-4)][GlcNAc(b1-2)[GlcNAc(b1-6)]Man(a1-6)]Man(b1-4)GlcNAc(b1-4)GlcNAc
# Method in brief: as §1
# [22] = biological target: GlcNAc(b1-2)[GlcNAc(b1-4)]Man(a1-3)[GlcNAc(b1-4)][GlcNAc(b1-2)[GlcNAc(b1-6)]Man(a1-6)]Man(b1-4)GlcNAc(b1-4)[Fuc(a1-6)]GlcNAc
# Method in brief: as §1
# [23] = biological target: GlcNAc(b1-2)[GlcNAc(b1-6)]Man(a1-6)[GlcNAc(b1-2)Man(a1-3)]Man(b1-4)GlcNAc(b1-4)GlcNAc
# Method in brief: as §1
# [24] = biological target: GlcNAc(b1-2)[GlcNAc(b1-6)]Man(a1-6)[GlcNAc(b1-2)Man(a1-3)]Man(b1-4)GlcNAc(b1-4)[Fuc(a1-6)]GlcNAc
# Method in brief: as §1
# [25] = biological target: GlcNAc(b1-2)[GlcNAc(b1-6)]Man(a1-6)[GlcNAc(b1-4)][GlcNAc(b1-2)Man(a1-3)]Man(b1-4)GlcNAc(b1-4)GlcNAc
# Method in brief: as §1
# GlcNAc(b1-3)Fuc = biological target: GlcNAc(b1-3)Fuc
# Method in brief: as §1
# GlcNAc(b1-3)Gal = biological target: GlcNAc(b1-3)Gal
# Method in brief: as §1
# [26] = biological target: GlcNAc(b1-3)Gal(b1-3)GalNAc
# Method in brief: as §1
# GlcNAc(b1-3)Gal(b1-4)Glc = biological target: GlcNAc(b1-3)Gal(b1-4)Glc
# Method in brief: as §1
# [27] = biological target: GlcNAc(b1-3)Gal(b1-4)GlcNAc
# Method in brief: as §1
# [28] = biological target: GlcNAc(b1-3)Gal(b1-4)GlcNAc(b1-2)Man(a1-3)[GlcNAc(b1-3)Gal(b1-4)GlcNAc(b1-2)Man(a1-6)]Man(b1-4)GlcNAc(b1-4)GlcNAc
# Method in brief: as §1
# [29] = biological target: GlcNAc(b1-3)Gal(b1-4)GlcNAc(b1-2)Man(a1-3)[GlcNAc(b1-3)Gal(b1-4)GlcNAc(b1-2)Man(a1-6)]Man(b1-4)GlcNAc(b1-4)[Fuc(a1-6)]GlcNAc
# Method in brief: as §1
# [30] = biological target: GlcNAc(b1-3)Gal(b1-4)GlcNAc(b1-2)[GlcNAc(b1-3)Gal(b1-4)GlcNAc(b1-6)]Man(a1-6)[GlcNAc(b1-3)Gal(b1-4)GlcNAc(b1-2)Man(a1-3)]Man(b1-4)GlcNAc(b1-4)GlcNAc
# Method in brief: as §1
# [31] = biological target: GlcNAc(b1-3)Gal(b1-4)GlcNAc(b1-3)Gal(b1-4)GlcNAc
# Method in brief: as §1
# [32] = biological target: GlcNAc(b1-3)Gal(b1-4)GlcNAc(b1-3)Gal(b1-4)GlcNAc(b1-2)Man(a1-3)[GlcNAc(b1-3)Gal(b1-4)GlcNAc(b1-3)Gal(b1-4)GlcNAc(b1-2)Man(a1-6)]Man(b1-4)GlcNAc(b1-4)GlcNAc
# Method in brief: as §1
# [33] = biological target: GlcNAc(b1-3)Gal(b1-4)GlcNAc(b1-3)Gal(b1-4)GlcNAc(b1-2)Man(a1-3)[GlcNAc(b1-3)Gal(b1-4)GlcNAc(b1-3)Gal(b1-4)GlcNAc(b1-2)Man(a1-6)]Man(b1-4)GlcNAc(b1-4)[Fuc(a1-6)]GlcNAc
# Method in brief: as §1
# [34] = biological target: GlcNAc(b1-3)Gal(b1-4)GlcNAc(b1-3)Gal(b1-4)GlcNAc(b1-2)[GlcNAc(b1-3)Gal(b1-4)GlcNAc(b1-3)Gal(b1-4)GlcNAc(b1-6)]Man(a1-6)[GlcNAc(b1-3)Gal(b1-4)GlcNAc(b1-3)Gal(b1-4)GlcNAc(b1-2)Man(a1-3)]Man(b1-4)GlcNAc(b1-4)[Fuc(a1-6)]GlcNAc
# Method in brief: as §1
# [35] = biological target: GlcNAc(b1-3)Gal(b1-4)GlcNAc(b1-3)Gal(b1-4)GlcNAc(b1-3)Gal(b1-4)GlcNAc(b1-2)Man(a1-3)[GlcNAc(b1-3)Gal(b1-4)GlcNAc(b1-3)Gal(b1-4)GlcNAc(b1-3)Gal(b1-4)GlcNAc(b1-2)Man(a1-6)]Man(b1-4)GlcNAc(b1-4)GlcNAc
# Method in brief: as §1
# [36] = biological target: GlcNAc(b1-3)Gal(b1-4)GlcNAc(b1-3)Gal(b1-4)GlcNAc(b1-3)Gal(b1-4)GlcNAc(b1-2)Man(a1-3)[GlcNAc(b1-3)Gal(b1-4)GlcNAc(b1-3)Gal(b1-4)GlcNAc(b1-3)Gal(b1-4)GlcNAc(b1-2)Man(a1-6)]Man(b1-4)GlcNAc(b1-4)[Fuc(a1-6)]GlcNAc
# Method in brief: as §1
binder,measurement,setting,value
"HPA (Helix pomatia), Q2F1K8 (protein) MQAFYSGLLLLCVVAFAAAQRVQSGKIDCGNDAGWAKVPSDDPGRDNTRELAKNITFASPYCRPPVVLLSITQLDVEQSQNLRVIARLYSVSPTGFKASCYTWHNTKVYSMSISWISIENY",glycan array binding signal (z-score),[1],-0.19
same,glycan array binding signal (z-score),Glc(a1-6)Glc(a1-6)Glc,-0.247
same,glycan array binding signal (z-score),[2],-0.102
same,glycan array binding signal (z-score),Glc(b1-4)Glc,-0.253
same,glycan array binding signal (z-score),Glc(b1-6)Glc,-0.179
same,glycan array binding signal (z-score),GlcA(b1-3)Gal,-0.313
same,glycan array binding signal (z-score),GlcA(b1-3)GlcNAc,-0.243
same,glycan array binding signal (z-score),GlcA(b1-6)Gal,-0.158
same,glycan array binding signal (z-score),[3],-0.426
same,glycan array binding signal (z-score),[4],-0.351
same,glycan array binding signal (z-score),[5],2.04
same,glycan array binding signal (z-score),[6],0.871
same,glycan array binding signal (z-score),[7],1.29
same,glycan array binding signal (z-score),[8],0.726
same,glycan array binding signal (z-score),[9],0.93
same,glycan array binding signal (z-score),[10],1.34
same,glycan array binding signal (z-score),[11],1.89
same,glycan array binding signal (z-score),[12],1.6
same,glycan array binding signal (z-score),[13],0.592
same,glycan array binding signal (z-score),[14],0.071
same,glycan array binding signal (z-score),[15],-0.24
same,glycan array binding signal (z-score),[16],0.066
same,glycan array binding signal (z-score),[17],-0.403
same,glycan array binding signal (z-score),[18],-0.214
same,glycan array binding signal (z-score),[19],-0.232
same,glycan array binding signal (z-score),[20],-0.249
same,glycan array binding signal (z-score),[21],-0.326
same,glycan array binding signal (z-score),[22],-0.295
same,glycan array binding signal (z-score),[23],-0.266
same,glycan array binding signal (z-score),[24],0.167
same,glycan array binding signal (z-score),[25],-0.301
same,glycan array binding signal (z-score),GlcNAc(b1-3)Fuc,-0.157
same,glycan array binding signal (z-score),GlcNAc(b1-3)Gal,-0.298
same,glycan array binding signal (z-score),[26],0.4
same,glycan array binding signal (z-score),GlcNAc(b1-3)Gal(b1-4)Glc,-0.151
same,glycan array binding signal (z-score),[27],-0.297
same,glycan array binding signal (z-score),[28],-0.103
same,glycan array binding signal (z-score),[29],0
same,glycan array binding signal (z-score),[30],-0.009
same,glycan array binding signal (z-score),[31],-0.292
same,glycan array binding signal (z-score),[32],0.308
same,glycan array binding signal (z-score),[33],-0.019
same,glycan array binding signal (z-score),[34],0.324
same,glycan array binding signal (z-score),[35],-0.189
same,glycan array binding signal (z-score),[36],-0.112
